Measurements reported in the antibiotic and cytotoxicity screens of Wong et al. (2023).
The list shows a part of the results.

How the values were obtained:
HSkMC = human skeletal muscle cells; test: cytotoxicity call (relative viability < 0.9); details: 10 µM
HepG2 = test: cytotoxicity call (relative viability < 0.9); details: 10 µM
S. aureus RN4220 = test: growth inhibition call (relative growth <= 0.2); details: 50 µM

| Compound | cytotoxicity call (HSkMC) | cytotoxicity call (HepG2) | growth inhibition call (S. aureus RN4220) |
| --- | --- | --- | --- |
| NS(=O)(=O)c1ccc(Cl)c2nonc12 | inactive | inactive | inactive |
| C[C@@H]1CCCCO[C@@H](CN(C)C(=O)C2CCCCC2)[C@@H](C)CN([C@H](C)CO)C(=O)c2cc(NC(=O)Nc3ccccc3)ccc2O1 | inactive | inactive | inactive |
| C[C@@H]1CN([C@H](C)CO)C(=O)Cc2cc(NS(=O)(=O)c3cn(C)cn3)ccc2O[C@H]1CN(C)C(=O)Nc1ccc2c(c1)OCO2 | inactive | inactive | inactive |
| O=C(O)c1csc2ccccc12 | inactive | inactive | inactive |
| Cc1noc(C)c1S(=O)(=O)Nc1ccc2c(c1)C(=O)N([C@H](C)CO)C[C@H](C)[C@H](CN(C)CC1CCCCC1)OCCCC[C@@H](C)O2 | inactive | inactive | inactive |
| C[C@@H]1CCCCO[C@H](CN(C)CC2CCCCC2)[C@H](C)CN([C@@H](C)CO)C(=O)c2cc(NC(=O)Nc3ccc4c(c3)OCO4)ccc2O1 | inactive | active | inactive |
| C[C@H]1CNC(=O)O1 | inactive | inactive | inactive |
| C[C@@H]1CN([C@H](C)CO)C(=O)c2cccc(NS(=O)(=O)c3ccc(Cl)cc3)c2O[C@@H]1CN(C)S(=O)(=O)c1cn(C)cn1 | inactive | inactive | inactive |
| C[C@@H]1CN([C@@H](C)CO)S(=O)(=O)c2ccc(-c3cccc(C#N)c3)cc2O[C@@H]1CN(C)C(=O)c1ccncc1 | inactive | inactive | inactive |
| CC(=O)Nc1nnc(S(N)(=O)=O)s1 | inactive | inactive | inactive |
| CN1C[C@H](O)COC[C@H]2O[C@@H](CC(=O)N3CCN(c4ccccc4)CC3)CC[C@@H]21 | inactive | inactive | inactive |
| C[C@@H]1CN([C@H](C)CO)C(=O)c2cc(NC(=O)CCCN(C)C)ccc2O[C@H]1CN(C)Cc1ccc2c(c1)OCO2 | inactive | inactive | inactive |
| C[C@H](CO)N1C[C@H](C)[C@@H](CN(C)Cc2cccc3c2OCCCO3)OCc2cnnn2CCCC1=O | inactive | inactive | inactive |
| C[C@@H]1CN([C@H](C)CO)C(=O)c2cc(NC(=O)C3CCCCC3)ccc2O[C@@H](C)CCCCO[C@H]1CN(C)C(=O)c1ccccc1 | inactive | inactive | inactive |
